Hit rate of the full screen: of about 310,000 compounds, about 14,000 (4.5%) showed an effect of 50% or more. Effects have a minus sign here. Some of the results follow.
molecular target: human ether-à-go-go-related gene (hERG) potassium channel (human, UniProt Q12809); test: primary screen, population patch clamp on CHO cells stably expressing hERG
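Note: peak tail current of the secondary pulse compared with the same well before compound.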

Sequence of human ether-à-go-go-related gene (hERG) potassium channel (Q12809 whole entry, looked up): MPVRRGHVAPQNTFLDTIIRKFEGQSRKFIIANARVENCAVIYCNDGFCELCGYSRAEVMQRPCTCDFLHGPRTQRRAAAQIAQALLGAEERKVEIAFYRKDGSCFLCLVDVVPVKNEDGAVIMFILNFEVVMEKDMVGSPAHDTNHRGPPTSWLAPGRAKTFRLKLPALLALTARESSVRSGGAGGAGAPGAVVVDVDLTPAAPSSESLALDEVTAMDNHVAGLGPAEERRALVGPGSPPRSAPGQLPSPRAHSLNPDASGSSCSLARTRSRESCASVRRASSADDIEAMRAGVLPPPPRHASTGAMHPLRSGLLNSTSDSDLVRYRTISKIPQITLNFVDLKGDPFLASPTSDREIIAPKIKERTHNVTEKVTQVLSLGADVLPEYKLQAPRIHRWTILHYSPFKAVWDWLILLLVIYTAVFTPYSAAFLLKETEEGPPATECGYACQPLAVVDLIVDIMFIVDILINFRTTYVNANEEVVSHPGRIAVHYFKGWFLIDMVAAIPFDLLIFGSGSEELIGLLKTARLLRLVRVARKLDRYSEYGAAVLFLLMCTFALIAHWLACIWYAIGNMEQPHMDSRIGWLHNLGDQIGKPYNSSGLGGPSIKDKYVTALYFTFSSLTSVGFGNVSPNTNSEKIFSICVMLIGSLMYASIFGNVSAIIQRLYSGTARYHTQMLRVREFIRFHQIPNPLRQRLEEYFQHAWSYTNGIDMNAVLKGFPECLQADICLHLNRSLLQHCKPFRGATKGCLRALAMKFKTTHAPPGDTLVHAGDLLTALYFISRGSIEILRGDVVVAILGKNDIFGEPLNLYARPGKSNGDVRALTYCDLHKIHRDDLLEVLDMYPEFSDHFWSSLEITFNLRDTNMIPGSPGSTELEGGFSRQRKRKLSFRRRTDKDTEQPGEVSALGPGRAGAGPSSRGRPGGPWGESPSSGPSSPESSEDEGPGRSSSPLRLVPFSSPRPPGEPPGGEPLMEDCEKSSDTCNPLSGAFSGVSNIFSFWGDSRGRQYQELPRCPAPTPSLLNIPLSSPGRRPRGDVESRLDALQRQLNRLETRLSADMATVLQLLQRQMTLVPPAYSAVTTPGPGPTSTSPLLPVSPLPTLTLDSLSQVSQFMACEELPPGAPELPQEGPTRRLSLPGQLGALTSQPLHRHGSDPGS

Row | Compound | hERG current change (%, negative = inhibition) at 10uM [%]
1 | COc1ccccc1N1CCN(C2CCCN(C(=O)CCc3cnn(C)c3)C2)CC1 (stereo not shown) | -2.81
2 | COc1ccc(-c2ccc3c(N)c(C(=O)NC(C)C)sc3n2)cc1OC | -9.01
3 | CCOC(=O)N1CCC(N2Cc3cccc(C(=O)NCc4ccc(OC)cc4)c3C2=O)CC1 | -40
4 | CCOCCn1c(-c2ccc(OC)cc2)nc2ccccc21 | -33.2
5 | Cl.OCCNCc1cc(Br)ccc1OCc1ccccc1 | -55.7
6 | CC(C)CCSc1nnc(Cn2c(=O)sc3ccccc32)n1C | -9.01
7 | O=C(CSc1nc(O)cc(=O)n1-c1ccccc1)c1ccc(Br)cc1 | 14.3
8 | Cc1ccc(NC(=O)NCc2nc3ccccc3n2C)cc1 | 7.06
9 | CCC(C)[C@H](NC(=O)NCc1ccccc1Cl)C(=O)OC (stereo partly shown) | 12
10 | CCN(CC)CCNC(=O)CSc1c2c(nc3cc(Cl)ccc13)CCCC2 | -64.1
11 | CCOC(=O)c1cc2c(ccn2C)n1CC(=O)Nc1ccc(F)cc1 | 6.01
12 | Cc1nn(Cc2ccc(Cl)cc2Cl)c(Cl)c1C(=O)O | 2.57
13 | COCCNC(=S)N1CCC(c2nc(-c3ccc(N(C)C)cc3)no2)CC1 | -12.9
14 | Cc1cn2c(-c3ccncc3)nnc2s1 | 7.96
15 | c1ccc(COc2cncc(-c3cccnc3)c2)cc1 | -17.8
16 | CC(=O)Nc1ccc(S(=O)(=O)N2CCC(C(=O)NCCC(=O)NCc3ccncc3)CC2)cc1 | 9.11
17 | CC(=O)Nc1ccc(S[C@@H](CCN2CC[C@H](O)CCC2=O)c2ccccc2)cc1 | 19.6
18 | COc1ccc(NC(=O)CSc2nnc(CCC(=O)Nc3ccc(C)c(Cl)c3)n2C)cc1 | -16.4
19 | CC(=O)c1c(C)[nH]c(C(=O)OCC(=O)Nc2cc(C(F)(F)F)ccc2N2CCOCC2)c1C | -56.1
20 | O=C(NCCCN1CCOCC1)c1cccc(S(=O)(=O)Nc2ccc(F)cc2)c1 | -23.3
21 | NS(=O)(=O)c1cccc(NC(=O)COC(=O)CCN2C(=O)c3ccccc3C2=O)c1 | 6.78
22 | O=[N+]([O-])c1ccc(-c2ccc(/C=N/c3c(-c4ccco4)nc4ccccn34)o2)cc1 | 8.33

Row | Compound | hERG current change (%, negative = inhibition) at 10uM [%]
23 | Cc1cccnc1Nc1nc(-c2ccccn2)cs1 | 4.03
24 | Cc1c(N(C)C(=O)COc2ccc3ccccc3c2)c(=O)n(-c2ccccc2)n1C | 6.46
25 | Cc1ccc(Cn2c(C(C)Nc3nc(-c4ccc(Cl)cc4)cs3)nc3cc(C(=O)NCCCO)ccc32)cc1 (stereo not shown) | 17.6
26 | CC1CCCC(C)N1C(=O)CSc1nc2ccccc2c(=O)[nH]1 (stereo not shown) | 5
27 | Cc1ccc2c(C)c(C(=O)N3CCC(N4CCC(C(=O)NC5CC5)CC4)CC3)oc2c1 | -59.1
28 | O=C(O)CC(NC(=O)c1ccc2c(c1)OCO2)c1cccc([N+](=O)[O-])c1 (stereo not shown) | 18.2
29 | Cc1ccc(N2CC(C(=O)Nc3ccc(S(=O)(=O)N4CCOCC4)cc3)CC2=O)cc1 (stereo not shown) | 1.73
30 | C=CCOc1ccc(C2/C(=C(\O)c3c(C)[nH]c(C(=O)OC)c3C)C(=O)C(=O)N2CCN(C)C)cc1 (stereo not shown) | 17.3
31 | CCOC(=O)c1nn(-c2ccccc2F)c(-c2ccccc2)c1C(=O)c1ccccc1 | 7.34
32 | Cc1nnc(NC(=O)CC(CN(C)S(=O)(=O)c2ccccc2)c2ccccc2)s1 (stereo not shown) | -18.7
33 | COC(=O)CN(c1cc(OC)ccc1OC)S(=O)(=O)c1ccc(OC)c(OC)c1 | -12
34 | CCOCC(=O)Nc1cc(C(=O)NCCc2ccccc2)ccc1Cl | -16.9
35 | CN(Cc1ccccn1)Cc1nc(COc2ccccc2)no1 | -2.85
36 | Cc1cc(N2C(=O)C(O)=C(C(=O)c3cccs3)C2c2ccc(F)cc2)no1 (stereo not shown) | 15.9
37 | O=C(CNC(=O)c1cccc(-n2cnnn2)c1)Nc1ccc(F)c(F)c1 | -0.737
38 | Cn1ccnc1C1CCCCN1C(=O)c1cc(COc2ccc(F)cc2F)on1 (stereo not shown) | -20.3
39 | O=C(CCNC(=O)N1C[C@H]2C[C@@H](C1)c1cccc(=O)n1C2)Nc1cccc(Cl)c1 | 7.05
40 | CS(=O)(=O)NCCC1=CCCCC1 | 10.8
41 | CCc1cc(C(=O)Nc2nnc(C3CC3)s2)sc1C | -0.944
42 | CS/C(=N\S(=O)(=O)c1cccs1)Nc1ccc(F)c(Cl)c1 | -8.86
43 | O=C(CSc1ccc(-c2ccncc2)nn1)N1CCN(c2ccccc2)CC1 | -6.6

Source: PMC4336329 (PLoS ONE, 2015)
